From PubChem BioAssay AID1030 (National Center for Advancing Translational Sciences (NCATS), 2008)
Hit rate of the full screen: of about 220,000 compounds, about 16,000 (7.3%) were called active. The shares of active, inactive and inconclusive entries below differ from those in the screen. The call rests on the fitted dose curve; in most records, active means well fitted inhibition curve with a large enough effect (not every such curve was filed as active); inconclusive means small, poorly fitted or top-dose-only effect, or another doubt; inactive means no such curve, though single readings can be large or run the other way. No potency is given beside an inconclusive call; the fits are too rough.

Molecular target: Aldehyde dehydrogenase 1A1 (Homo sapiens) (UniProt P00352)
Assay: qHTS Assay for Inhibitors of Aldehyde Dehydrogenase 1 (ALDH1A1)
Details: Purified ALDH1A1, NADH fluorescence, propionaldehyde substrate; series mostly up to 75.3 µM
Potency means the concentration at half of the fitted maximal effect; tags describe the fitted curve by direction and shape.

Chain of UniProt P00352 (P00352 whole entry, looked up): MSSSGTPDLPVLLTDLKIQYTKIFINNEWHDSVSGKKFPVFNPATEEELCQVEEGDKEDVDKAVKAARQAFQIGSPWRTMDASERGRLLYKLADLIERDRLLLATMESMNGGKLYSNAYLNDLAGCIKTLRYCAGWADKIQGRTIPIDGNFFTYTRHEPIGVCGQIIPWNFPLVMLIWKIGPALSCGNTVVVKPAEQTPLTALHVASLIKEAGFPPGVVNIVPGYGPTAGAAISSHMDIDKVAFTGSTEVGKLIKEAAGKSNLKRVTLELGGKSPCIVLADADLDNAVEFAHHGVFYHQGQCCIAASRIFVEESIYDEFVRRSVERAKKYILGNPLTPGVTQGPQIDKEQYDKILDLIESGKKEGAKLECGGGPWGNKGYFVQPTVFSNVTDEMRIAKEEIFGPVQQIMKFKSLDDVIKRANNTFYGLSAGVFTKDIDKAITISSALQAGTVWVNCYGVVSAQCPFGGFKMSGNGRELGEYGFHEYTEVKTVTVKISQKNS

Structure (SMILES)	Potency
O=C(NC1CCCCC1)C1CN(S(=O)(=O)c2ccccc2)CCN1S(=O)(=O)c1ccccc1 (configuration not stated)	inconclusive [inhibitor, partial curve]
CCCn1c(SCC(=O)Nc2ccc3c(c2)CCC3)n[nH]c1=O	inconclusive [inhibitor, single point]
C=CCC1(C)OC=Cc2nc3cc(Cl)c(Cl)cc3nc21 (configuration not stated)	inconclusive [inhibitor, single point]
CNC(=O)c1c(N)sc2c1CCCCC2	active: 25.1 µM
Cn1c(=O)oc2cc(S(=O)(=O)N3CCN(c4ccccc4)CC3)ccc21	inconclusive [inhibitor, single point]
Cc1ncsc1C(=O)N1N=C2/C(=C/c3ccc(N4CCOCC4)cc3)CCCC2C1c1ccc(N2CCOCC2)cc1 (configuration not stated)	inconclusive [inhibitor, single point]
Cc1ccc2nc(-c3ccc(NC(=O)CSc4nccc(=O)[nH]4)cc3)sc2c1	inconclusive [inhibitor, partial curve]
Cc1c(CN2CCCC(C(=O)c3cccc(OC(C)C)c3)C2)c(=O)n(-c2ccccc2)n1C (configuration not stated)	inconclusive [inhibitor, single point]
Cc1cc(C(F)(F)F)c2c(N)c(C(=O)Nc3cc(C)on3)sc2n1	inconclusive [inhibitor, partial curve]
CN(C)CCN1C(=O)c2oc3ccc(Cl)cc3c(=O)c2C1c1cccc(Br)c1 (configuration not stated)	inconclusive [inhibitor, full curve, poor fit]
CC(NS(=O)(=O)c1cccc(S(=O)(=O)c2ccccc2)c1)C(=O)O (configuration not stated)	inactive
CN(C)S(=O)(=O)c1ccc(N2CCCC2)c(C(=O)Nc2nc3c(ccc4ccccc43)s2)c1	inconclusive [inhibitor, single point]
CCOC(=O)N1CCN(Cc2nc3c(c(=O)n(C)c(=O)n3C)n2Cc2cccc3ccccc23)CC1	active: 0.1 µM
Fc1ccc(Nc2ccc3ccccc3n2)c(F)c1	inconclusive [inhibitor, single point]
O=C(NCCc1ccccc1)C1CCN(C(=O)c2ccc([N+](=O)[O-])cc2)CC1	inactive
CC1CN(C(=O)c2cc3cc([N+](=O)[O-])ccc3oc2=O)CC(C)O1 (configuration not stated)	inconclusive [inhibitor, single point]
COc1ccc(/C=C/C(=O)NC(=S)NNC(=O)c2cccs2)cc1	inconclusive [inhibitor, single point]
CCOC(=O)c1c(C)[nH]c(C(=O)CN2C(=O)NC(C)(c3ccc(C)cc3)C2=O)c1C (configuration not stated)	inconclusive [inhibitor, partial curve, poor fit]
COc1ccc(NC(=O)COC(=O)Cc2ccc(-c3ccccc3)cc2)c(OC)c1	inconclusive [inhibitor, single point]
CC1CCN(CC(=O)Nc2sc3c(c2C#N)CCC3)CC1	inconclusive [inhibitor, single point]
COc1cc(/C=C(\C#N)C(N)=O)ccc1OS(=O)(=O)c1ccc(C)cc1	active: 17.8 µM

Structure (SMILES)	Potency
FC(F)(F)c1cccc(NC(=S)NCc2ccccn2)c1	inconclusive [inhibitor, single point]
Cc1ccc(Oc2nc3c(c(=O)n(C)c(=O)n3C)n2C)cc1C	inactive
Cc1ccc(OCCN2C(=O)NC3(CCc4ccccc4C3)C2=O)cc1 (configuration not stated)	inconclusive [inhibitor, partial curve]
Cn1c(=O)c(Sc2ccccc2)c(O)c2ccccc21	active: 25.1 µM
COc1ccc(N2CCN(C(=O)c3ccccc3Br)CC2)c([N+](=O)[O-])c1	inconclusive [inhibitor, single point]
CCOC(=O)C1CCCN(C(=O)c2cc3nc(-c4ccc5c(c4)OCO5)cc(C(F)(F)F)n3n2)C1 (configuration not stated)	inconclusive [inhibitor, partial curve]
Cc1ccc(C)c(NC(=S)c2nc3ccccc3s2)c1	inconclusive [inhibitor, single point]
O=C(CSCc1ccc(Br)cc1)Nc1ccc(S(=O)(=O)N2CCOCC2)cc1	inconclusive [inhibitor, single point]
CCc1c(C)nc(SCC(=O)CC(=O)OC(C)C)c(C#N)c1C	inconclusive [inhibitor, single point]
N#Cc1c(/N=C/c2ccc(Br)s2)sc2c1CCC2	inconclusive [inhibitor, single point]
COc1cc(S(=O)(=O)NCCOC23CC4CC(CC(C4)C2)C3)c(OC)cc1Cl	inconclusive [inhibitor, single point]
Cc1cccc(NC(=S)NC(C)(C)CC(C)(C)C)c1	inactive
COc1ccc(-n2cnnc2SCc2ncc(-c3ccccc3)o2)cc1	inactive
COc1ccccc1Oc1c(C)oc2c(CN(C)C)c(O)ccc2c1=O	inconclusive [inhibitor, partial curve]
COc1ccc(-c2cc(CCCC(=O)NCc3ccccn3)no2)cc1	inconclusive [inhibitor, single point]
O=C(Nc1ccc(-c2noc(COc3ccccc3Cl)n2)cc1)c1ccco1	inconclusive [inhibitor, partial curve]
CC(C)CNS(=O)(=O)c1ccc(CCC(=O)N2CCN(Cc3ccc4c(c3)OCO4)CC2)cc1	inactive
O=C(c1ccc(N2CCOCC2)cc1)c1cccs1	inconclusive [inhibitor, single point]
Cc1cc(C)n(-c2cc(N3CCN(C(=O)c4cccc(F)c4)CC3)ccc2[N+](=O)[O-])n1	active: 4.47 µM
COc1cccc(NC(=O)c2ocnc2C)c1	inconclusive [inhibitor, single point]
O=C(CSc1ccsc1[N+](=O)[O-])N1CCCCCC1	inconclusive [inhibitor, single point]
